Out of some 110,000 compounds screened, about 230 (0.21%) showed an effect of 50% or more. Some of the results follow.
Target: DPAP1 (Plasmodium falciparum, UniProt Q8IIJ9)
Experiment: primary screen, percent inhibition; read by cleavage of a fluorogenic dipeptide substrate; higher = more effect of the substance
Set-up: species or system P. falciparum D10 trophozoite lysates; single well
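Further: 30 min substrate incubation versus DMSO and 10 µM JCP410 controls.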

DPAP1, sequence (Q8IIJ9 whole entry, looked up): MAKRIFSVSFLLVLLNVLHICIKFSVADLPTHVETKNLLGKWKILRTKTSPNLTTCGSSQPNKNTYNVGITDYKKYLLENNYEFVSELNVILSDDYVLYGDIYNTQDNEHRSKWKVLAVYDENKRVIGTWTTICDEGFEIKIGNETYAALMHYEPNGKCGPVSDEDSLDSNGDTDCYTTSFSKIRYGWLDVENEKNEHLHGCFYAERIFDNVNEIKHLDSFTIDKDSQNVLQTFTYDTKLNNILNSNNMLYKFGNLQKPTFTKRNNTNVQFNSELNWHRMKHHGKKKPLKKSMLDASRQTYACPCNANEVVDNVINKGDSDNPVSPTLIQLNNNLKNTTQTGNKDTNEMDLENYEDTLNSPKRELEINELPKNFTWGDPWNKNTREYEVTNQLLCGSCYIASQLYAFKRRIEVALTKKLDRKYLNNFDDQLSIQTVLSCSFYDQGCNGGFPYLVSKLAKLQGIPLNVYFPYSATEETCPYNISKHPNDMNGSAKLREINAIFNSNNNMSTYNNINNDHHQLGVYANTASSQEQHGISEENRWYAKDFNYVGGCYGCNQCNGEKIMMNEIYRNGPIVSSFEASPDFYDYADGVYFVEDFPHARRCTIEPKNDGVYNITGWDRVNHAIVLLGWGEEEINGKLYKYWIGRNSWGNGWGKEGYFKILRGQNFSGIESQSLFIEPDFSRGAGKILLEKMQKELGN

SMILES | % Inhibition @ 10 uM
CCN1CCN(c2ccc(Nc3nc(C)nc4cc(Cl)ccc34)cc2)CC1 | 1.54%
Cc1ccc(Nc2nc(-c3ccc(F)cc3)cs2)cc1Cl | -5.65%
CCOc1ccc2nc(NC(=O)Cn3cccc3)sc2c1 | -7.99%
FC(F)(F)c1nc2ccccc2n1Cc1cc(Cl)cc2c1OCOC2 | -0.403%
C=CCSc1ncc(Cl)c(C(=O)Nc2sc3c(c2C(N)=O)CCCC3)n1 | -0.946%
O=S(=O)(c1ccc(Cl)cc1)c1nc(-c2cccs2)oc1NC1CC1 | 2.02%
CC(C)C[C@H](NC(=O)c1ccc(Br)cc1Cl)C(=O)NCC#N | 8.48%
COC(=O)c1ccc(-c2ccco2)n1CC(=O)N1CCC(Cc2ccccc2)CC1 | -5.37%
Cc1ccc(C(=O)Nc2sc3c(c2C(N)=O)CCCCCC3)cc1 | 2.22%
O=C(COCc1cc(-c2ccc3c(c2)OCO3)on1)N1CCN(c2ccccn2)CC1 | 0.56%
CCOc1ccccc1C(=O)Nc1ccccc1CC | 3.09%
COc1ccc(CC(=O)Nc2cccc(Cl)c2Cl)cc1 | 0.317%
CCOC(=O)c1[nH]c2ccc(OCc3ccccc3)cc2c1C | 5.98%
O=S(=O)(c1ccc(-c2cc(C(F)(F)F)no2)s1)N1CC=C(c2ccccc2)CC1 | -0.166%
Cc1nc([N+](=O)[O-])c(NCCO)n1Cc1ccccc1 | -3.77%
CCOc1ccc(C(=O)Nc2cccnc2)cc1 | 3.65%
CNC(=O)c1ccc(CSc2nc3cccnc3n2Cc2ccc(OC)cc2)cc1 | 13.8%
CCc1ccc(OC(C)C(=O)N(Cc2ccc(C)o2)C2CCS(=O)(=O)C2)cc1 (stereo not shown) | -1.11%
NC(=O)C1CCN(C(=O)CCCN2C(=O)C(c3ccccc3)Oc3cccnc32)CC1 (stereo not shown) | -5.07%
COCc1c(C#N)c(S)nc(C)c1[N+](=O)[O-] | 30.8%
Cc1ccc(S(=O)(=O)Nc2ccc(NS(C)(=O)=O)cc2)cc1 | -7.08%
Cc1nc2sccn2c1-c1csc(Nc2ccc(C(=O)O)cc2)n1 | -2.89%
O=C(COc1ccccc1)Nc1ccc(Cl)cc1 | -2.25%
Cc1ccccc1CNC(=O)C1CCCN(c2nnc(N3CCCC3=O)s2)C1 (stereo not shown) | 0.623%
CC1CCN(c2nc3ccc(C(=O)NCCN4CCOCC4)cc3s2)CC1 | 5.73%
CC1CCc2c(C(=O)NCCCN3CCOCC3)csc2C1 (stereo not shown) | -3.21%

SMILES | % Inhibition @ 10 uM
COC(=O)NC(c1ccccc1)c1ccccc1 | -3.24%
O=C(NCCSCc1ccco1)c1ccc(CSc2ccccc2)cc1 | -3.14%
Cc1ccc(Cn2c(=O)c3ccccc3n3c(CCC(=O)NCCC(C)C)nnc23)cc1 | 4.16%
CCc1oc(C(=O)OC)cc1CNC(N)=O | 0.883%
Cc1cccc(N2CCN(c3ccc(NC(=O)C4CC=CCC4C(=O)O)cc3)CC2)c1 (stereo not shown) | -3.43%
CN(C(=O)c1ccc(CNS(=O)(=O)c2ccc(F)cc2)cc1)C1CCCCC1 | 0.718%
COc1cc(C2CC(=O)NC3=C2C(=O)CC(C)(C)C3)cc(OC)c1O (stereo not shown) | 12.4%
COC(=O)C1=C(C)OC(N)=C(C#N)C1c1cc(CSc2nnc(N)s2)c(C)s1 (stereo not shown) | 5.93%
CCOc1ccccc1/C=c1\sc2nnc(-c3cccc(C)c3)n2c1=O | -7.71%
O=C(Cn1cc2c(n1)CCCC2)NCCCc1ccccc1 | 0.137%
C=CCSc1nnc(COc2ccccc2)o1 | -4.91%
O=C(CC1Sc2ccc(C(F)(F)F)cc2NC1=O)Nc1ccc(F)cc1 (stereo not shown) | -5.34%
CSc1ccc(CCNCc2c(C(=O)O)c(C)n(Cc3cccc(C)c3)c2C)cc1 | -7.6%
Cc1cccnc1NC(=O)CCc1nc2cccnc2n1Cc1cccs1 | -9.07%
COc1cc(OC)cc(C(=O)NC2CCCCCCC2)c1 | -2.58%
CCC1CCCCN1C(=O)Cn1c(SCc2ccccc2F)nc2cccnc21 (stereo not shown) | -4.73%
CC1CN(C2CCCCC2)C(C)CC1=O (stereo not shown) | -8.76%
CC(C)CC1CC2C(O1)c1ccccc1OC2(C)C (stereo not shown) | 4.82%
Cc1ccc(NC(=O)COc2ccc(C)cc2Br)cc1 | -5.3%
CCN1CCN(Cc2cccc(Cl)c2Cl)CC1 | 0.847%
O=C(O)c1cccc2cc[nH]c12 | 2.79%
O=C(c1ccc(C(F)(F)F)cc1)N1CCN(c2ccc(Cl)cc2)CC1 | 1.86%
CCCCN(C)S(=O)(=O)c1c(C)[nH]c(C)c1C(=O)OCC | 0.882%
CCC(C)C(NC(=O)CN)C(=O)NC(CCc1ccccc1)C(=O)CO (stereo not shown) | 4.54%
COc1cc2c(cc1OC)CN(Cc1ccc(C)cc1C)CC2 | -2.81%
CCOc1ccc(/C=C2\CN(C)CC3=C2OC(N)=C(C#N)C3c2ccc(OCC)cc2)cc1 (stereo not shown) | -0.759%

SMILES | % Inhibition @ 10 uM
Oc1ccc(-c2csc(NCc3ccco3)n2)cc1 | -3.5%
Cc1cc(O)nc(SCC(=O)c2ccc(O)c(O)c2)n1 | 0.812%
O=C(Nc1cccnc1)c1c(O)nc2c(c1O)CCCC2 | -3.93%
CCOc1ccc(N2C(=O)CC(NCc3ccc(Cl)c(Cl)c3)C2=O)cc1 (stereo not shown) | 8.6%
CC(C)c1ccc(/C=C2\C(=N)N3N=C(S(C)(=O)=O)SC3=NC2=O)cc1 | 1.85%
Cc1sc(NC(=O)c2cccc(Br)c2)c(C(=O)O)c1C | -5.29%
Cc1ccc(C)c(Cn2c(=O)cc(-c3ccccc3)c3c(C)nn(C)c32)c1 | -1.15%
O=S(=O)(Nc1ccc(Br)cc1)c1ccc(Cl)cc1 | -0.999%
CC1=C(C#N)C(c2ccc(C)cc2)C2=C(O)c3ccccc3C2=N1 (stereo not shown) | -3.85%
CC(C)(C)c1ccc(C(=O)N[C@@H](Cc2c(F)cccc2F)C(=O)NCC#N)cc1 | -5.2%
COc1ccc(CCn2c(=O)c(C#N)cc3c(=O)n4cccc(C)c4nc32)cc1OC | -9.82%
Cc1ccc(CNC(=O)CCNS(=O)(=O)c2cccs2)cc1 | -4.65%
C=CCNC(=O)c1ccccc1C(=O)Nc1cccc2ccccc12 | -6.52%
O=C(NCc1ccccn1)c1ccc2ccccc2n1 | -4.91%
COc1ccccc1CNC(=O)c1ccc2c(Cl)c3c(nc2c1)CCCC3 | 4.91%
Cc1cc(NC(=O)CSc2nc3nccnc3c(=O)n2CCc2ccccc2)[nH]n1 | 2.25%
COc1cc(OC)cc(C(=O)Nc2ccc(C)cc2)c1 | 2.48%
COc1ccc(Br)cc1/C=C1\C(=O)ON=C1c1ccccc1 | -2.37%
CCC(C(=O)NCc1ccc(C)cc1)n1ncn2c(cc3cc(C)ccc32)c1=O (stereo not shown) | -0.281%
O=C(O)C1c2ccccc2C(=O)N(C2CC2)C1c1ccccc1O (stereo not shown) | -2.65%
Cc1cccc(OCc2nn3c(-c4ccncc4)nnc3s2)c1 | 7.5%
N=C(NOC(=O)/C=C/c1ccccc1Cl)c1ccncc1 | -1.86%
COc1cc(OC)cc(C(=O)Nc2cccnc2Cl)c1 | -2.32%
CCOc1ccc(-c2nc(C)sc2CC(=O)O)cc1 | -3.53%
COc1cc(NC(=O)COc2cccc(Cl)c2)cc(OC)c1OC | 1.65%
COc1ccc(NS(=O)(=O)CC(C)C)c(OC)c1 | -2.35%

SMILES | % Inhibition @ 10 uM
COc1ccc(-c2nnc3sc(-c4ccccc4)cc(=O)n23)cc1 | 6.17%
CC1(C)CC(=O)C2=C(C1)OC1=C(C(=O)CC(C)(C)C1)C2c1cccc(O)c1 | 0.98%
CCCCN(Cc1cc2cc(OC)ccc2nc1O)S(C)(=O)=O | -0.671%
c1cc(-c2nc3c4c5c(sc4ncn3n2)CCCC5)ccn1 | 0.512%
COC(=O)c1c(C)nc2n(C)c3ccccc3n12 | 5.16%
O=C(O)c1c(CNCCc2ccccc2Cl)c2ccccc2n1Cc1ccc(F)cc1 | -5.93%
COc1ccc(N2CCN(C(C)Cc3cccc(C(F)(F)F)c3)CC2)cc1 (stereo not shown) | -5.31%
CCCOc1ccc(C2C(C(=O)OC)=CN(C)C=C2C(=O)OC)cc1OC | 3.45%
CC1(C)CC(=O)C2=C(C1)OC1=C(C(=O)CC(C)(C)C1)C2c1ccccc1 | -2.15%
COc1cc(-c2nnc3sc(C4COc5ccccc5O4)nn23)cc(OC)c1OC (stereo not shown) | 1.25%
N#CCNC(=O)[C@H](CCCNC(=N)N)NC(=O)c1ccc(-c2csc(Nc3ccncc3)n2)cc1 | 1.7%
CCCNC(=O)CN(c1ccccc1F)S(=O)(=O)c1ccc(C)cc1 | 1.69%
COc1ccccc1C(=O)n1nc(-c2ccco2)nc1NCc1ccccc1Cl | -5.08%
COc1cc(CN2CCN(c3cccc(Cl)c3)CC2)ccc1O | -1.77%
CCOC(=O)N1CCN(c2c(N(C)Cc3ccccc3)c(=O)c2=O)CC1 | 5.09%
Cc1nc(CC(O)C(Cl)(Cl)Cl)c2cc(C)oc2n1 (stereo not shown) | 0.64%
Cc1ncc(C)[n+]2c(Nc3ccccc3)nn(C)c12 | -2.32%
CCCOc1ccc(-c2nc3ccccc3c(C(=O)O)c2C)cc1 | 0.64%
CC(C)Oc1ccccc1NC(=O)CSc1nc2ccccc2c(=O)n1C | 2.22%
CCCCNC(=O)CN(c1cc(C(F)(F)F)ccc1Cl)S(C)(=O)=O | 2.22%
COC(=O)c1sc(N2C(=O)c3oc4ccc(C)cc4c(=O)c3C2c2ccc(C)cc2)nc1C (stereo not shown) | -5%
CCc1ccc(OCC(=O)Nc2sc3c(c2C(N)=O)CCC3)cc1 | 10.9%
Cc1noc2ncnc(NCCN(C)Cc3ccccc3)c12 | -6.93%
CCCCNC(=S)N1CCn2cccc2C1c1cccnc1 (stereo not shown) | -2.38%
CCN(CC)S(=O)(=O)c1ccc(C(=O)Nc2ncn(Cc3ccccc3)n2)cc1 | 5.94%
